Measured values as given in PubChem BioAssay AID1159554 (Broad Institute, 2015).
Out of some 94,000 compounds screened, about 2,100 (2.2%) were called active. This list was built around the results that the source calls inconclusive (neither active nor inactive); the mix of calls is not that of the screen. No stated cut-off is given here; in the data, active means activity change below about -80%; inconclusive means no clear call, values can overlap the other calls; inactive means above that.

Test: P. falciparum Dd2 growth inhibitors, primary screen, SYBR Green fluorescence, single dose replicates (AID 1159554)
Details: 72 h, at 10 µM, hits give low values

Compound | activity change
C[C@@H]1CN([C@H](C)CO)C(=O)c2cc(NC(=O)C3CCCCC3)ccc2O[C@@H](C)CCCCO[C@H]1CN(C)C(=O)Nc1cccc2ccccc12 | inconclusive: -80.5%
C[C@@H]1CN([C@H](C)CO)C(=O)Cc2cc(NC(=O)CCCCCC(=O)Nc3ccccc3N)ccc2O[C@H]1CN(C)S(=O)(=O)c1cccs1 | inactive: -40.2%
C[C@H](CO)N1C[C@H](C)[C@@H](CN(C)Cc2ccc(C(=O)Nc3ccccc3N)cc2)Oc2ccc(NS(=O)(=O)c3ccc(F)cc3)cc2CC1=O | inconclusive: -81.4%
COc1ccc(S(=O)(=O)Nc2ccc3c(c2)C(=O)N([C@@H](C)CO)C[C@@H](C)[C@@H](CN(C)Cc2ccc4c(c2)OCO4)OCCCC[C@H](C)O3)cc1 | inconclusive: -80.2%
O=C(C[C@@H]1C[C@H]2c3cc(NC(=O)Nc4ccc(C(F)(F)F)cc4)ccc3O[C@H]2[C@H](CO)O1)NCc1ccc(Cl)cc1 | inactive: -74.1%
Cc1noc(C)c1S(=O)(=O)N(C)C[C@@H]1OCCCC[C@H](C)Oc2ccc(NC(=O)Nc3ccccc3)cc2C(=O)N([C@@H](C)CO)C[C@H]1C | inconclusive: -80.2%
O=C(c1cccnc1)N1CC(=O)N2[C@H](C1)[C@@H](c1ccc(-c3cccnc3)cc1)[C@@H]2CO | active: -87.2%
Cc1ccc(-c2ccc3c(c2)O[C@@H](CN(C)Cc2ccncc2)[C@H](C)CN([C@@H](C)CO)S3(=O)=O)cc1 | active: -88.8%
CO[C@H](CN(C)Cc1nccs1)[C@H](C)CN([C@@H](C)CO)S(=O)(=O)c1ccc(F)cc1 | inactive: 19.9%
COc1ccccc1CN1C[C@@H]2N[C@H](C1)C2c1ccc(-c2ccncc2)cc1 (stereo not given in full) | inconclusive: -80.7%
C[C@H](CO)N1C[C@H](C)[C@H](CN(C)Cc2ccc(C(=O)Nc3ccccc3N)cc2)Oc2c(NC(=O)Nc3cccc4ccccc34)cccc2C1=O | inconclusive: -82.2%
C/C=C/c1ccc([C@@H]2[C@@H](CO)N(CCC(F)(F)F)C23CN(C(C)=O)C3)cc1 | inactive: -0.47%
C[C@H](CO)N1C[C@H](C)[C@H](CN(C)C(=O)Cc2ccccc2)Oc2cc(C#CC3(O)CCCC3)ccc2S1(=O)=O | inactive: -50.8%
C[C@@H]1CCCCO[C@@H](CN(C)C(=O)Nc2ccccc2)[C@@H](C)CN([C@@H](C)CO)C(=O)c2cc(NC(=O)Nc3cccc4ccccc34)ccc2O1 | inconclusive: -82%
C[C@H]1CN([C@@H](C)CO)C(=O)c2cccc(NC(=O)Nc3cccc4ccccc34)c2O[C@H]1CN(C)Cc1ccc(C(=O)Nc2ccccc2N)cc1 | inconclusive: -80.1%
COc1ccc(NC(=O)Nc2ccc3c(c2)C(=O)N([C@H](C)CO)C[C@H](C)[C@H](CN(C)CC2CCCCC2)OCCCC[C@H](C)O3)cc1 | inconclusive: -80.3%
COc1ccc(S(=O)(=O)N(C)C[C@@H]2OCCCC[C@H](C)Oc3ccc(NS(=O)(=O)c4c(C)noc4C)cc3C(=O)N([C@@H](C)CO)C[C@H]2C)cc1 | inconclusive: -81.1%
O=C(C[C@H]1C=C[C@H](NS(=O)(=O)c2ccc(F)cc2)[C@@H](CO)O1)N1CCN(c2ccccc2)CC1 | inactive: 8.94%

Compound | activity change
COc1ccccc1C#Cc1ccc2c(c1)O[C@@H](CN(C)Cc1ccncc1)[C@H](C)CN([C@@H](C)CO)S2(=O)=O | inconclusive: -83.9%
COc1ccc2c3c(n(C)c2c1)[C@H](CO)N(Cc1ccncc1)CC31CCN(C(=O)C2CCCC2)CC1 | inconclusive: -82.6%
C[C@H](CO)N1C[C@H](C)[C@H](CN(C)Cc2ccc(-c3ccccc3)cc2)OCc2ccccc2-c2c(n(C)c3ccccc23)C1=O | inconclusive: -80.5%
C[C@H](CO)N1C[C@H](C)[C@@H](CN(C)Cc2ccc(-c3ccccc3)cc2)Oc2ccc(NC(=O)Cc3cn(C)c4ccccc34)cc2CC1=O | inconclusive: -80.8%
COc1ccc(C#Cc2ccc([C@@H]3[C@@H](CO)N4CCCCN(C(=O)Nc5ccccc5F)C[C@H]34)cc2)cc1 | inconclusive: -80.8%
COc1ccc(S(=O)(=O)N(C)C[C@@H]2Oc3ncc(-c4cc5ccccc5o4)cc3C(=O)N([C@H](C)CO)C[C@@H]2C)cc1 | active: -85.9%
CC(C)CC#Cc1ccc2c(c1)O[C@@H](CN(C)C(=O)Cc1ccncc1)[C@@H](C)CN([C@H](C)CO)S2(=O)=O | inconclusive: -80.2%
C[C@H]1CCCCO[C@@H](CN(C)C(=O)c2ccccc2)[C@@H](C)CN([C@@H](C)CO)C(=O)c2cc(NC(=O)C3CCCCC3)ccc2O1 | inconclusive: -80.6%
C[C@@H]1CCCCO[C@H](CN(C)S(=O)(=O)c2ccc(F)cc2)[C@H](C)CN([C@H](C)CO)C(=O)c2cc(NS(=O)(=O)c3ccc(F)cc3)ccc2O1 | inconclusive: -81.5%
COc1ccc2c3c(n(C)c2c1)[C@@H](CO)N(C(=O)Nc1ccc(F)cc1)CC31CCN(Cc2cccnc2)CC1 | active: -89%
CCCN(C)C[C@@H]1Oc2cc(C#Cc3cccnc3)ccc2S(=O)(=O)N([C@@H](C)CO)C[C@H]1C | active: -88.6%
O=C(C1CCOCC1)N1[C@H](CO)[C@@H](c2ccccc2)C12CN(Cc1cccc(Cl)c1)C2 | inconclusive: -80.8%
COc1ccc(-c2ccc([C@H]3[C@H](C#N)N(C(=O)c4cccc(F)c4)[C@H]3CO)cc2)cc1 | inconclusive: -84.6%
CCCN(C)C[C@@H]1OCCCC[C@@H](C)Oc2ccc(NC(=O)Nc3ccc4c(c3)OCO4)cc2C(=O)N([C@H](C)CO)C[C@H]1C | inconclusive: -81.1%
Cc1ccc(S(=O)(=O)Nc2ccc3c(c2)C(=O)N([C@@H](C)CO)C[C@@H](C)[C@@H](CN(C)C(=O)Nc2ccc(C(F)(F)F)cc2)OCCCC[C@H](C)O3)cc1 | active: -82%
COc1ccc(NC(=O)N2CCC3(CC2)CN(C(=O)c2cccnc2)[C@H](CO)c2[nH]c4cc(OC)ccc4c23)cc1 | inconclusive: -80.8%
C[C@@H]1CCCCO[C@H](CN(C)S(=O)(=O)c2ccc(Cl)cc2)[C@H](C)CN([C@@H](C)CO)C(=O)c2cc(NC(=O)c3ccncc3)ccc2O1 | inconclusive: -80.1%
